The record followed here is patent US20240262905A1 (PANDION OPERATIONS, published 2024).

The target in this experiment is T1, Insulin.
T1 construct: Plate coat in the polyreactivity ELISA
The experiment in a line: ELISA, plate coated with insulin 5 ug/mL, test article at 100 nM, anti-human Fc-HRP detection. In general terms: An ELISA detects its analyte on a solid surface through an enzyme-linked reagent.

B1: IL2DSGAB2 (other)
heavy: QVQLVQSGAEVRKPGASVRVSCKASGYTLTTYDINWVRQATGQGLEWMGWMNPTSGNTAYAQKFQGRVTMTRNTSISTAYMELSSLRSEDTAVYYCARGLFFGVVTKPNYYYYAMDVWGQGTTVTVSSASTKGPSVFPLAPSSKSTSGGTAALGCLVKDYFPEPVTVSWNSGALTSGVHTFPAVLQSSGLYSLSSVVTVPSSSLGTQTYICNVNHKPSNTKVDKKVEPKSCDKTHTCPPCPAPEAAGAPSVFLFPPKPKDTLMISRTPEVTCVVVDVSHEDPEVKFNWYVDGVEVHNAKTKPREEQYNSTYRVVSVLTVLHQDWLNGKEYKCKVSNKALPAPIEKTISKAKGQPREPQVYTLPPSREEMTKNQVSLTCLVKGFYPSDIAVEWESNGQPENNYKTTPPVLDSDGSFFLYSKLTVDKSRWQQGNVFSCSVMHEALHNHYTQKSLSLSPGGGGGSAPTSSSTKKTQLQLEHLLLDLQMILNGINNYKNPKLTRMLTFKFYMPKKATELKHLQCLEEELKPLEEALNLAPSKNFHLRPRDLISDINVIVLELKGSETTFMCEYADETATIVEFINRWITFSQSIISTLT
light: [about 200 residues omitted]
notes: SD2 anti-desmoglein human IgG1 with the IL-2 mutein fused to the C-terminus of the heavy chain; copies: 2 + 2
B1 displayed an Insulin polyreactivity score of 6.3.
